Structures can show the parent of a compound that is named as a salt. ± gives the standard deviation of the averaged measurements. Over roughly 3,100 compounds, “mean cytoplasmic OPP incorporation (global translation) relative to DMSO” has its median near 100; the lowest 2% begin near 56. The list shows a part of the results.

For this experiment, the system named is U2OS. The experiment is described as follows: mean cytoplasmic OPP incorporation (global translation) relative to DMSO (% of DMSO); higher = more protein synthesis. Particulars: 10 µM; 24 h. The procedure:
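Primary image-based screen in U2OS cells: compounds at 10 uM for 24 h, then a 1 h o-propargyl-puromycin (OPP) pulse, click labelling, and high-throughput microscopy. Mean cytoplasmic OPP intensity and nuclei count were normalised to DMSO wells within each plate (DMSO = 100) and averaged over triplicate plates.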
Turning to `COC1(C2=NCCN2)COc2ccccc2O1` (configuration not stated), the “mean cytoplasmic OPP incorporation” value was found to be 102.
The value for `OC[C@H]1O[C@@H](n2cnc3c(N[C@H]4CCC[C@@H]4O)ncnc32)[C@H](O)[C@@H]1O` was 102.
The value for `Cc1ncc(-c2ccnc(Nc3ccc(S(C)(=O)=O)cc3)n2)n1C(C)C` was 55.9; that for `CC(C)NC[C@@H](O)COc1ccc(CC(N)=O)cc1` [(R)-(+)-Atenolol] was 104; that for `NS(=O)(=O)c1cc2c(cc1C(F)(F)F)NCNS2(=O)=O` [Hydroflumethiazide] was 92.1.
Turning to `NC(=O)CCCCn1ccc(NC(N)=NCC(F)(F)F)n1`, the “mean cytoplasmic OPP incorporation” value came out at 108.
As for `CN(C)CCCN=c1c2ccccc2n(C)c2[nH]c(=O)n(C)c(=O)c12`, the “mean cytoplasmic OPP incorporation” value came out at 85.2.
For `COC(=O)C1=C(C)NC(C)=C([N+](=O)[O-])[C@H]1c1ccccc1C(F)(F)F`, the “mean cytoplasmic OPP incorporation” value came to 106.
For `O=C(Nc1ccccc1)C12CC1C(=NO)c1ccccc1O2` (configuration not stated) the value was 92.4.
Turning to `N#CCNC(=O)c1ccc(-c2ccnc(Nc3ccc(N4CCOCC4)cc3)n2)cc1` [Momelotinib (CYT387)], the “mean cytoplasmic OPP incorporation” value is 95.6.
The value for `OCc1c[nH]c2ccccc12` [Indole-3-carbinol] was 113; that for `Cc1c(NC(=O)c2cccnc2)c(=O)n(-c2ccccc2)n1C` [Nifenazone] was 98.6; that for `O=C(/C=C/c1ccc(O)cc1)c1ccc(O)cc1O` [Isoliquiritigenin] was 100.
`CS(=O)(=O)OCCCCOS(C)(=O)=O` [Busulfan]: the “mean cytoplasmic OPP incorporation” value was 102.
For the compound `CC(=N)NCCCC[C@H](N)C(=O)O` [L-NIL hydrochloride], the “mean cytoplasmic OPP incorporation” value was 98.3.
Consider `CN1CCc2c(c3ccccc3n2Cc2ccc(C(=O)NO)cc2)C1` [Tubastatin A HCl], for which the “mean cytoplasmic OPP incorporation” value amounted to 75.7.
As for `CC[C@@H]1C(=O)OC[C@@H]1Cc1cncn1C` [Pilocarpine hydrochloride], the “mean cytoplasmic OPP incorporation” value turned out to be 99.9.
As to `CC[C@@H]1C(=O)OC[C@@H]1Cc1cncn1C` [Pilocarpine nitrate], the “mean cytoplasmic OPP incorporation” value was 97.8.
For `CC(C)(CO)c1cc2cc(NC(=O)C3(c4ccc5c(c4)OC(F)(F)O5)CC3)c(F)cc2n1C[C@@H](O)CO` the value was 101.
As to `Cc1c(CN2CCN(C(=O)[C@H](C)O)CC2)sc2c(N3CCOCC3)nc(-c3cnc(N)nc3)nc12` [Apitolisib (GDC-0980, RG7422)], the “mean cytoplasmic OPP incorporation” value was determined as 50.7.
`Cc1cnc(-c2cc(N3CCN(C(=O)CCS(C)(=O)=O)CC3)ncc2Cl)c(C)c1`: the “mean cytoplasmic OPP incorporation” value was 95.9.
Take `C[C@@H](O[C@H]1OCCN(Cc2nn(P(=O)(O)O)c(=O)[nH]2)[C@H]1c1ccc(F)cc1)c1cc(C(F)(F)F)cc(C(F)(F)F)c1` [Fosaprepitant dimeglumine]: the “mean cytoplasmic OPP incorporation” value came to 108.
Turning to `CCC(C)(Oc1ccc(C2(c3ccc(OC(C)(CC)C(=O)O)cc3)CCCCC2)cc1)C(=O)O` (configuration not stated) [Clinofibrate], the “mean cytoplasmic OPP incorporation” value worked out at 100.
The value for `COc1cc2nccc(Oc3ccc(NC(=O)NC4CC4)c(Cl)c3)c2cc1C(N)=O` [E7080 (Lenvatinib)] was 97.3 ± 0.1.
`CCn1c(=O)[nH]c2cc(Cl)c(Cl)cc21`: the “mean cytoplasmic OPP incorporation” value came to 98.5.
As to `CC(=O)OCC(=O)[C@@]12OC(C)(C)O[C@@H]1C[C@H]1[C@@H]3C[C@H](F)C4=CC(=O)C=C[C@]4(C)[C@@]3(F)[C@@H](O)C[C@@]12C` [Fluocinonide], the “mean cytoplasmic OPP incorporation” value amounted to 105.
The value for `CC(=O)OCC(=O)[C@@]12OC(C)(C)O[C@@H]1C[C@H]1[C@@H]3C[C@H](F)C4=CC(=O)C=C[C@]4(C)[C@@]3(F)[C@@H](O)C[C@@]12C` [Fluocinonide (Vanos)] was 105.
For the compound `c1ccc2c(CC3=NCCN3)cccc2c1` [Naphazoline hydrochloride], the “mean cytoplasmic OPP incorporation” value turned out to be 102.
The value for `CCN(CC)CC(=O)Nc1c(C)cccc1C` [Lidocaine hydrochloride] was 104.
For the compound `CC(=O)CC(c1ccccc1)c1c(O)c2ccccc2oc1=O` (configuration not stated) [Warfarin], the “mean cytoplasmic OPP incorporation” value turned out to be 107.
The value for `NS(=O)(=O)c1cc2c(cc1Cl)NC(C1CC3C=CC1C3)NS2(=O)=O` (configuration not stated) [Cyclothiazide] was 94.8; that for `S=C(S)N1CCCC1` [Pyrrolidinedithiocarbamate ammonium] was 94.2.
Consider `CO[C@@H]1[C@@H](O[C@@H]2O[C@H](C)[C@@H](O[C@H]3C[C@@](C)(O)[C@@H](OC(=O)CC(C)C)[C@H](C)O3)[C@H](N(C)C)[C@H]2O)[C@@H](CC=O)C[C@@H](C)[C@@H](O)/C=C/C=C/C[C@@H](C)OC(=O)C[C@H]1OC(C)=O` [Josamycin], for which the “mean cytoplasmic OPP incorporation” value worked out at 110.
With `O=c1oc2c(O)c(O)cc3c(=O)oc4c(O)c(O)cc1c4c23` [Ellagic acid], the “mean cytoplasmic OPP incorporation” value turned out to be 106.
Turning to `O=c1oc2c(O)c(O)cc3c(=O)oc4c(O)c(O)cc1c4c23` [Ellagic Acid], the “mean cytoplasmic OPP incorporation” value is 111.
Consider `CNC(=O)c1cc(Oc2ccc(NC(=O)Nc3ccc(Cl)c(C(F)(F)F)c3)cc2)ccn1` [Sorafenib (Nexavar)], for which the “mean cytoplasmic OPP incorporation” value was 94.3.
The value for `CNC(=O)c1cc(Oc2ccc(NC(=O)Nc3ccc(Cl)c(C(F)(F)F)c3)cc2)ccn1` [Sorafenib] was 91.2; that for `CNC(=O)c1cc(Oc2ccc(NC(=O)Nc3ccc(Cl)c(C(F)(F)F)c3)cc2)ccn1` [Sorafenib tosylate] was 129.
For `COc1cccc2c1C(=O)c1c(O)c3c(c(O)c1C2=O)C[C@@](O)(C(C)=O)C[C@@H]3O[C@H]1C[C@H](N)[C@H](O)[C@H](C)O1` [Daunorubicin hydrochloride] the value was 40.7.
As to `COc1cccc2c1C(=O)c1c(O)c3c(c(O)c1C2=O)C[C@@](O)(C(C)=O)C[C@@H]3O[C@H]1C[C@H](N)[C@H](O)[C@H](C)O1` [Daunorubicin HCl (Daunomycin HCl)], the “mean cytoplasmic OPP incorporation” value came out at 59.9.
As for `CC(=O)NS(=O)(=O)c1ccc(N)cc1` [Sulfacetamide sodic hydrate], the “mean cytoplasmic OPP incorporation” value worked out at 92.9.
For `CC(=O)NS(=O)(=O)c1ccc(N)cc1` [Sulfacetamide Sodium] the value was 99.6; for `Cc1cn([C@H]2C=C[C@@H](CO)O2)c(=O)[nH]c1=O` [Stavudine], 104 ± 8.6; for `C=C1CC[C@@H]2[C@](C)(CO)[C@H](O)CC[C@@]2(C)[C@@H]1C/C=C1/C(=O)OC[C@H]1O` [Andrographolide], 90.5.
Regarding `OCc1ccccc1O[C@@H]1O[C@H](CO)[C@@H](O)[C@H](O)[C@H]1O` [Salicin (Salicoside, Salicine)], the “mean cytoplasmic OPP incorporation” value was 107.
The value for `CN1C(CCl)Nc2cc(Cl)c(S(N)(=O)=O)cc2S1(=O)=O` (configuration not stated) [Methyclothiazide] was 92.9.
For `C=CC1=C(C(=O)O)N2C(=O)[C@@H](NC(=O)/C(=N\O)c3csc(N)n3)[C@H]2SC1` [Cefdinir] the value was 113; for `C=CC1=C(C(=O)O)N2C(=O)[C@@H](NC(=O)/C(=N\O)c3csc(N)n3)[C@H]2SC1` [Cefdinir (Omnicef)], 101.
On to `COc1ccc(NS(=O)(=O)c2ccc(I)cc2)cc1N1CCN(C)CC1`, for which the “mean cytoplasmic OPP incorporation” value was found to be 107.
`CCCN(C/C=C/I)C1CCc2cccc(O)c2C1` (configuration not stated) [8-Hydroxy-PIPAT oxalate]: the “mean cytoplasmic OPP incorporation” value was determined as 98.5.
Regarding `C[C@@H]1C[C@H]2[C@@H]3CCC4=CC(=O)C=C[C@]4(C)[C@@]3(F)[C@@H](O)C[C@]2(C)[C@@]1(O)C(=O)COP(=O)(O)O` [Dexamethasone Sodium Phosphate], the “mean cytoplasmic OPP incorporation” value turned out to be 97.
For the compound `Cc1cc(C)c(S(=O)(=O)Nc2ccccc2C(F)(F)F)c(C)c1`, the “mean cytoplasmic OPP incorporation” value came out at 97.3.
The value for `CC(C)[C@H](CO)Nc1nc(Nc2ccc(C(=O)O)c(Cl)c2)c2ncn(C(C)C)c2n1` [Purvalanol B] was 98.6; that for `COc1cc(COc2cc(N)c(Cl)cc2C(=O)CCC2CCN(CCNS(C)(=O)=O)CC2)cc(OC)c1` was 110.
On to `Cn1cc(CCn2cnc(-c3cnn(C)c3)c2-c2ccc(C#N)cc2)cn1`, for which the “mean cytoplasmic OPP incorporation” value was 96.3.
Regarding `CC(C)OC(=O)OCOP(=O)(CO[C@H](C)Cn1cnc2c(N)ncnc21)OCOC(=O)OC(C)C` [Tenofovir Disoproxil Fumarate], the “mean cytoplasmic OPP incorporation” value stood at 105.
Take `CN(c1nccc(=O)[nH]1)C1CCN(c2nc3ccccc3n2Cc2ccc(F)cc2)CC1` [Mizolastine]: the “mean cytoplasmic OPP incorporation” value came to 103.
As for `CCS(=O)(=O)N1CCC[C@@H]2CN3CCc4cc(OC)ccc4[C@@H]3C[C@@H]21`, the “mean cytoplasmic OPP incorporation” value was determined as 99.9.
For `O=C(O)c1ccccc1C(=O)Nc1ccc(S(=O)(=O)Nc2nccs2)cc1` [Phthalylsulfathiazole] the value was 90.3; for `CC[C@H](CO)Nc1nc(NCc2ccccc2)c2ncn(C(C)C)c2n1` [Roscovitine (Seliciclib, CYC202)], 104.
For the compound `Cc1ccc(NC(=O)c2cccc(C(C)(C)C#N)c2)cc1Nc1ccc2ncn(C)c(=O)c2c1`, the “mean cytoplasmic OPP incorporation” value was 100 ± 6.5.
As for `CC(CCCCC(=O)Nc1ccc(C(F)(F)F)cc1)NCCc1cnc[nH]1` (configuration not stated) [HTMT dimaleate], the “mean cytoplasmic OPP incorporation” value stood at 100.
On to `OCCN(CCO)c1nc(N2CCCCC2)c2nc(N(CCO)CCO)nc(N3CCCCC3)c2n1` [Dipyridamole], for which the “mean cytoplasmic OPP incorporation” value came to 108 ± 3.
The value for `CC(C)(C)[N+]([O-])=Cc1ccc(S(=O)(=O)O)cc1S(=O)(=O)O` was 97.4; that for `C[C@H](CCC(=O)NCCS(=O)(=O)O)[C@H]1CC[C@H]2[C@@H]3CC[C@@H]4C[C@H](O)CC[C@]4(C)[C@H]3C[C@H](O)[C@]12C` [Taurodeoxycholic acid] was 99.3.
Take `CN1CCN(C(c2ccccc2)c2ccccc2)CC1` [Cyclizine hydrochloride]: the “mean cytoplasmic OPP incorporation” value came out at 98.6.
For `CC(C)OC(=O)C1=CN(C(=O)c2ccc(F)c(F)c2)CC(C)(C)c2c1[nH]c1ccccc21` the value was 99.9; for `COC(=O)[C@@H]1CC2=CC(=O)CC[C@]2(C)[C@@]23O[C@@H]2C[C@@]2(C)[C@@H](CC[C@@]24CCC(=O)O4)[C@H]13` [Eplerenone], 100.1 ± 0.51; for `Cc1ccc(F)c(NC(=O)Nc2ccc(-c3cccc4[nH]nc(N)c34)cc2)c1` [Linifanib (ABT-869)], 99.3.
For the compound `C[C@]12CC[C@@H]3c4ccc(OC(=O)c5ccccc5)cc4CC[C@H]3[C@@H]1CC[C@@H]2O` [Estradiol Benzoate], the “mean cytoplasmic OPP incorporation” value was 99.8.
For `O=C(Nc1ccncc1)c1cc([N+](=O)[O-])ccc1Cl` the value was 83.9; for `O=C(CCCN1CCN(c2ccccn2)CC1)c1ccc(F)cc1` [Azaperone], 89.

For the origin of these results see the supplement of paper PMC8183993.
